According to PubChem BioAssay (NCI):
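Values below derive from 48-hour exposures of cells grown in 96-well plates, with endpoints linearly interpolated between the two concentrations bracketing the appropriate inhibition level. GI50 is the concentration that inhibits growth by half. TGI: total growth inhibition.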

tested on: NCI-H322M lung; assay: NCI-60 cell line screen, 48 h

Row | Structure (SMILES) | GI50 | TGI
1 | O=C(CSc1nc2sc3c(c2c(=O)n1-c1ccc(Cl)cc1)CCCC3)NNC(=O)Nc1cccc(C(F)(F)F)c1 | 3.96 µM | > 100 µM
2 | O=C(/C=C/c1cc(Cl)ccc1Cl)Nc1ncc(Cc2ccc(Cl)cc2)s1 | 0.485 µM | 30 µM
3 | CCCCCCNC(=O)Oc1ccc(/C(=C(\C)c2ccc(Cl)cc2)c2ccc(OCCN(C)C)cc2)cc1 | 3.84 µM | 16.5 µM
